Some entries share one result that the patent states for a list of compounds. For at least one compound, name, drawing or mass did not settle the structure.
How the values were obtained:
Test in all cases: Test Example 1: herbicidal effect test using paddy field flooding treatment
Type in all cases: in vivo
Conditions in all cases: water surface application, 21 days after treatment
[1] = tested on: Monochoria vaginalis (MV)
[2] = tested on: Schoenoplectiella juncoides (SJ)
[3] = tested on: Echinochloa crus-galli var. oryzicola (EC)
Ammannia multiflora (AM) = tested on: Ammannia multiflora (AM)

Measured: herbicidal efficacy (degree (%) of suppression of growth of terrestrial part)

Cc1ccc(NS(=O)(=O)C(F)(F)F)c(CN2CCc3ccccc3C2=O)c1 [Compound 4-7]
≥ 80%: [1]; dose 125 g a.i./ha | [2]; dose 125 g a.i./ha | [3]; dose 500 g a.i./ha | Ammannia multiflora (AM); dose 63 g a.i./ha

CS(=O)(=O)N(c1ccccc1CN1CCc2c(F)ccc(F)c2C1=O)S(=O)(=O)C(F)(F)F [Compound 3-247, N-[2-(N-methanesulfonyl-N-trifluoromethanesulfonyl)aminobenzyl]-5,8-difluoro-3,4-dihydroisoquinolin-1(2H)-one]
≥ 80%: [1]; dose 31 g a.i./ha | [2]; dose 63 g a.i./ha | [3]; dose 125 g a.i./ha | Ammannia multiflora (AM); dose 16 g a.i./ha

From patent US20250289788A1, “HALOALKYL SULFONANILIDE COMPOUND AND HERBICIDE CONTAINING THE SAME” (SDS BIOTECH K.K., priority 2022, published 2025)
